Laboratory results published in the supplement of paper PMC11876631.
± gives the standard deviation of the averaged measurements. Laboratory Escherichia coli strains with one amino-acid change in an essential protein, pooled on minimal glucose agar with carbenicillin or gentamicin at twice the control MIC (plus kanamycin and chloramphenicol for the plasmids), 48 h. Fold change of barcode share against drug-free plates; higher = less susceptible. Active = above 20 in both replicates (the paper's putatively resistant). '<' = one read or none on drug, '>' = one read or none on a drug-free plate. Shares are relative, so most strains fall below 1 when a few take over. Listed are strains with at least 15 reads on both drug-free plates, and hits; most hits rest on fewer reference reads. Replicate rank correlation about 0.5. Edits are read from barcodes.

B1: pabB L131Q (protein)
chain: MKTLSPAVITLLWRQDAAEFYFSRLSHLPWAMLLHSGYADHPYSRFDIVVAEPICTLTTFGKETVVSESEKRTTTTDDPLQVLQQVLDRADIRPTHNEDLPFQGGALGLFGYDLGRRFESLPEIAEQDIVQPDMAVGIYDWALIVDHQRHTVSLLSHNDVNARRAWLESQQFSPQEDFTLTSDWQSNMTREQYGEKFRQVQEYLHSGDCYQVNLAQRFHATYSGDEWQAFLQLNQANRAPFSAFLRLEQGAILSLSPERFILCDNSEIQTRPIKGTLPRLPDPQEDSKQAVKLANSAKDRAENLMIVDLMRNDIGRVAVAGSVKVPELFVVEPFPAVHHLVSTITAQLPEQLHASDLLRAAFPGGSITGAPKVRAMEIIDELEPQRRNAWCGSIGYLSFCGNMDTSITIRTLTAINGQIFCSAGGGIVADSQEEAEYQETFDKVNRILKQLEK
B2: pabB L131P (protein)
chain: MKTLSPAVITLLWRQDAAEFYFSRLSHLPWAMLLHSGYADHPYSRFDIVVAEPICTLTTFGKETVVSESEKRTTTTDDPLQVLQQVLDRADIRPTHNEDLPFQGGALGLFGYDLGRRFESLPEIAEQDIVPPDMAVGIYDWALIVDHQRHTVSLLSHNDVNARRAWLESQQFSPQEDFTLTSDWQSNMTREQYGEKFRQVQEYLHSGDCYQVNLAQRFHATYSGDEWQAFLQLNQANRAPFSAFLRLEQGAILSLSPERFILCDNSEIQTRPIKGTLPRLPDPQEDSKQAVKLANSAKDRAENLMIVDLMRNDIGRVAVAGSVKVPELFVVEPFPAVHHLVSTITAQLPEQLHASDLLRAAFPGGSITGAPKVRAMEIIDELEPQRRNAWCGSIGYLSFCGNMDTSITIRTLTAINGQIFCSAGGGIVADSQEEAEYQETFDKVNRILKQLEK
B3: pabB W141A (protein)
chain: MKTLSPAVITLLWRQDAAEFYFSRLSHLPWAMLLHSGYADHPYSRFDIVVAEPICTLTTFGKETVVSESEKRTTTTDDPLQVLQQVLDRADIRPTHNEDLPFQGGALGLFGYDLGRRFESLPEIAEQDIVLPDMAVGIYDAALIVDHQRHTVSLLSHNDVNARRAWLESQQFSPQEDFTLTSDWQSNMTREQYGEKFRQVQEYLHSGDCYQVNLAQRFHATYSGDEWQAFLQLNQANRAPFSAFLRLEQGAILSLSPERFILCDNSEIQTRPIKGTLPRLPDPQEDSKQAVKLANSAKDRAENLMIVDLMRNDIGRVAVAGSVKVPELFVVEPFPAVHHLVSTITAQLPEQLHASDLLRAAFPGGSITGAPKVRAMEIIDELEPQRRNAWCGSIGYLSFCGNMDTSITIRTLTAINGQIFCSAGGGIVADSQEEAEYQETFDKVNRILKQLEK
B4: pabB W141Q (protein)
chain: MKTLSPAVITLLWRQDAAEFYFSRLSHLPWAMLLHSGYADHPYSRFDIVVAEPICTLTTFGKETVVSESEKRTTTTDDPLQVLQQVLDRADIRPTHNEDLPFQGGALGLFGYDLGRRFESLPEIAEQDIVLPDMAVGIYDQALIVDHQRHTVSLLSHNDVNARRAWLESQQFSPQEDFTLTSDWQSNMTREQYGEKFRQVQEYLHSGDCYQVNLAQRFHATYSGDEWQAFLQLNQANRAPFSAFLRLEQGAILSLSPERFILCDNSEIQTRPIKGTLPRLPDPQEDSKQAVKLANSAKDRAENLMIVDLMRNDIGRVAVAGSVKVPELFVVEPFPAVHHLVSTITAQLPEQLHASDLLRAAFPGGSITGAPKVRAMEIIDELEPQRRNAWCGSIGYLSFCGNMDTSITIRTLTAINGQIFCSAGGGIVADSQEEAEYQETFDKVNRILKQLEK
B5: pabB W141D (protein)
chain: MKTLSPAVITLLWRQDAAEFYFSRLSHLPWAMLLHSGYADHPYSRFDIVVAEPICTLTTFGKETVVSESEKRTTTTDDPLQVLQQVLDRADIRPTHNEDLPFQGGALGLFGYDLGRRFESLPEIAEQDIVLPDMAVGIYDDALIVDHQRHTVSLLSHNDVNARRAWLESQQFSPQEDFTLTSDWQSNMTREQYGEKFRQVQEYLHSGDCYQVNLAQRFHATYSGDEWQAFLQLNQANRAPFSAFLRLEQGAILSLSPERFILCDNSEIQTRPIKGTLPRLPDPQEDSKQAVKLANSAKDRAENLMIVDLMRNDIGRVAVAGSVKVPELFVVEPFPAVHHLVSTITAQLPEQLHASDLLRAAFPGGSITGAPKVRAMEIIDELEPQRRNAWCGSIGYLSFCGNMDTSITIRTLTAINGQIFCSAGGGIVADSQEEAEYQETFDKVNRILKQLEK
B6: panB L42A (protein)
chain: MKPTTISLLQKYKQEKKRFATITAYDYSFAKLFADEGLNVMAVGDSLGMTVQGHDSTLPVTVADIAYHTAAVRRGAPNCLLLADLPFMAYATPEQAFENAATVMRAGANMVKIEGGEWLVETVQMLTERAVPVCGHLGLTPQSVNIFGGYKVQGRGDEAGDQLLSDALALEAAGAQLLVLECVPVELAKRITEALAIPVIGIGAGNVTDGQILVMHDAFGITGGHIPKFAKNFLAETGDIRAAVRQYMAEVESGVYPGEEHSFH
B7: panB L42W (protein)
chain: MKPTTISLLQKYKQEKKRFATITAYDYSFAKLFADEGLNVMWVGDSLGMTVQGHDSTLPVTVADIAYHTAAVRRGAPNCLLLADLPFMAYATPEQAFENAATVMRAGANMVKIEGGEWLVETVQMLTERAVPVCGHLGLTPQSVNIFGGYKVQGRGDEAGDQLLSDALALEAAGAQLLVLECVPVELAKRITEALAIPVIGIGAGNVTDGQILVMHDAFGITGGHIPKFAKNFLAETGDIRAAVRQYMAEVESGVYPGEEHSFH
B8: panB L42Q (protein)
chain: MKPTTISLLQKYKQEKKRFATITAYDYSFAKLFADEGLNVMQVGDSLGMTVQGHDSTLPVTVADIAYHTAAVRRGAPNCLLLADLPFMAYATPEQAFENAATVMRAGANMVKIEGGEWLVETVQMLTERAVPVCGHLGLTPQSVNIFGGYKVQGRGDEAGDQLLSDALALEAAGAQLLVLECVPVELAKRITEALAIPVIGIGAGNVTDGQILVMHDAFGITGGHIPKFAKNFLAETGDIRAAVRQYMAEVESGVYPGEEHSFH
B9: panB M41A (protein)
chain: MKPTTISLLQKYKQEKKRFATITAYDYSFAKLFADEGLNVALVGDSLGMTVQGHDSTLPVTVADIAYHTAAVRRGAPNCLLLADLPFMAYATPEQAFENAATVMRAGANMVKIEGGEWLVETVQMLTERAVPVCGHLGLTPQSVNIFGGYKVQGRGDEAGDQLLSDALALEAAGAQLLVLECVPVELAKRITEALAIPVIGIGAGNVTDGQILVMHDAFGITGGHIPKFAKNFLAETGDIRAAVRQYMAEVESGVYPGEEHSFH
B10: panB M41Q (protein)
chain: MKPTTISLLQKYKQEKKRFATITAYDYSFAKLFADEGLNVQLVGDSLGMTVQGHDSTLPVTVADIAYHTAAVRRGAPNCLLLADLPFMAYATPEQAFENAATVMRAGANMVKIEGGEWLVETVQMLTERAVPVCGHLGLTPQSVNIFGGYKVQGRGDEAGDQLLSDALALEAAGAQLLVLECVPVELAKRITEALAIPVIGIGAGNVTDGQILVMHDAFGITGGHIPKFAKNFLAETGDIRAAVRQYMAEVESGVYPGEEHSFH
B11: panB V40A (protein)
chain: MKPTTISLLQKYKQEKKRFATITAYDYSFAKLFADEGLNAMLVGDSLGMTVQGHDSTLPVTVADIAYHTAAVRRGAPNCLLLADLPFMAYATPEQAFENAATVMRAGANMVKIEGGEWLVETVQMLTERAVPVCGHLGLTPQSVNIFGGYKVQGRGDEAGDQLLSDALALEAAGAQLLVLECVPVELAKRITEALAIPVIGIGAGNVTDGQILVMHDAFGITGGHIPKFAKNFLAETGDIRAAVRQYMAEVESGVYPGEEHSFH
B12: panB V40Q (protein)
chain: MKPTTISLLQKYKQEKKRFATITAYDYSFAKLFADEGLNQMLVGDSLGMTVQGHDSTLPVTVADIAYHTAAVRRGAPNCLLLADLPFMAYATPEQAFENAATVMRAGANMVKIEGGEWLVETVQMLTERAVPVCGHLGLTPQSVNIFGGYKVQGRGDEAGDQLLSDALALEAAGAQLLVLECVPVELAKRITEALAIPVIGIGAGNVTDGQILVMHDAFGITGGHIPKFAKNFLAETGDIRAAVRQYMAEVESGVYPGEEHSFH
B13: panB M215P (protein)
chain: MKPTTISLLQKYKQEKKRFATITAYDYSFAKLFADEGLNVMLVGDSLGMTVQGHDSTLPVTVADIAYHTAAVRRGAPNCLLLADLPFMAYATPEQAFENAATVMRAGANMVKIEGGEWLVETVQMLTERAVPVCGHLGLTPQSVNIFGGYKVQGRGDEAGDQLLSDALALEAAGAQLLVLECVPVELAKRITEALAIPVIGIGAGNVTDGQILVPHDAFGITGGHIPKFAKNFLAETGDIRAAVRQYMAEVESGVYPGEEHSFH
B14: panB L82A (protein)
chain: MKPTTISLLQKYKQEKKRFATITAYDYSFAKLFADEGLNVMLVGDSLGMTVQGHDSTLPVTVADIAYHTAAVRRGAPNCLLAADLPFMAYATPEQAFENAATVMRAGANMVKIEGGEWLVETVQMLTERAVPVCGHLGLTPQSVNIFGGYKVQGRGDEAGDQLLSDALALEAAGAQLLVLECVPVELAKRITEALAIPVIGIGAGNVTDGQILVMHDAFGITGGHIPKFAKNFLAETGDIRAAVRQYMAEVESGVYPGEEHSFH

molecular target: Escherichia coli (laboratory strain); test: barcode share on antibiotic plates over drug-free plates; higher = less susceptible; settings: antibiotic: carbenicillin; 2× MIC (3.1 µg/mL)
Description: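 A pool of E. coli strains, each edited to carry one amino-acid change in an essential protein, was grown for 48 h on minimal glucose agar with or without antibiotic; strain barcodes were sequenced; mean of two replicates.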

Protein | fold change of barcode share
B1 | 0.397 ± 0.039
B2 | 0.436 ± 0.074
B3 | 2.108 ± 0.012
B4 | 1.49 ± 0.16
B5 | 1.34 ± 0.83
B6 | 3.082 ± 0.01
B7 | 9.27 ± 2.1
B8 | 7.86 ± 0.64
B9 | 7.83 ± 0.39
B10 | 0.494 ± 0.099
B11 | 0.564 ± 0.028
B12 | 10.1 ± 4.1
B13 | 0.255 ± 0.08
B14 | 2.75 ± 0.14

same assay, conditions: antibiotic: gentamicin; 2× MIC (MIC 0.45 µg/mL)

Protein | fold change of barcode share
B3 | 0.011 ± 0.0039
B4 | 0.0228 ± 0.022
B5 | 0.0213 ± 0.0099
B6 | 0.119 ± 0.074
B10 | 0.00795 ± 0.0015
B11 | 0.00959 ± 0.0061
B14 | 0.0102 ± 0.0034
